# Some of the results follow.
# B1: MAA (Maackia amurensis), P0DKL3 (protein)
# chain: MATSNSKPTQVLLATFLTFFFLLLNNVNSSDELSFTINNFVPNEADLLFQGEASVSSTGVLQLTRVENGQPQKYSVGRALYAAPVRIWDNTTGSVASFSTSFTFVVKAPNPDITSDGLAFYLAPPDSQIPSGSVSKYLGLFNNSNSDSSNQIVAVELDTYFAHSYDPWDPNYRHIGIDVNGIESIKTVQWDWINGGVAFATITYLAPNKTLIASLVYPSNQTTFSVAASVDLKEILPEWVRVGFSAATGYPTEVETHDVLSWSFTSTLEANCDAATENNVHIARYTA
# Columns and labels:
# Test in all cases: glycan array binding signal (z-score within array); higher = stronger binding
# Settings in all cases: glycan notation: IUPAC condensed, linker removed
# [1] = molecular target: Gal(b1-4)GlcNAc(b1-3)Gal(b1-3)GalNAc
# Method in brief: (§1)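 Negative Z-scores can be read as non-binding. The Z-score is calculated within each array and then averaged across arrays of one protein sequence at different concentrations or buffers and across linkers. Arrays, 3228 in all, were curated from the Consortium for Functional Glycomics database and kept only where the protein sequence was available.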
# [2] = molecular target: Gal(b1-4)GlcNAc(b1-3)Gal(b1-3)GlcNAc
# Method in brief: as §1
# [3] = molecular target: Gal(b1-4)GlcNAc(b1-3)Gal(b1-4)Glc
# Method in brief: as §1
# [4] = molecular target: Gal(b1-4)GlcNAc(b1-3)Gal(b1-4)GlcNAc
# Method in brief: as §1
# [5] = molecular target: Gal(b1-4)GlcNAc(b1-3)Gal(b1-4)GlcNAc(b1-2)Man(a1-3)[Gal(b1-4)GlcNAc(b1-3)Gal(b1-4)GlcNAc(b1-2)Man(a1-6)]Man(b1-4)GlcNAc(b1-4)GlcNAc
# Method in brief: as §1
# [6] = molecular target: Gal(b1-4)GlcNAc(b1-3)Gal(b1-4)GlcNAc(b1-2)Man(a1-3)[Gal(b1-4)GlcNAc(b1-3)Gal(b1-4)GlcNAc(b1-2)Man(a1-6)]Man(b1-4)GlcNAc(b1-4)[Fuc(a1-6)]GlcNAc
# Method in brief: as §1
# [7] = molecular target: Gal(b1-4)GlcNAc(b1-3)Gal(b1-4)GlcNAc(b1-2)[Gal(b1-4)GlcNAc(b1-3)Gal(b1-4)GlcNAc(b1-6)]Man(a1-6)[Gal(b1-4)GlcNAc(b1-3)Gal(b1-4)GlcNAc(b1-2)Man(a1-3)]Man(b1-4)GlcNAc(b1-4)GlcNAc
# Method in brief: as §1
# [8] = molecular target: Gal(b1-4)GlcNAc(b1-3)Gal(b1-4)GlcNAc(b1-2)[Gal(b1-4)GlcNAc(b1-3)Gal(b1-4)GlcNAc(b1-6)]Man(a1-6)[Gal(b1-4)GlcNAc(b1-3)Gal(b1-4)GlcNAc(b1-2)Man(a1-3)]Man(b1-4)GlcNAc(b1-4)[Fuc(a1-6)]GlcNAc
# Method in brief: as §1
# [9] = molecular target: Gal(b1-4)GlcNAc(b1-3)Gal(b1-4)GlcNAc(b1-3)Gal(b1-4)GlcNAc
# Method in brief: as §1
# [10] = molecular target: Gal(b1-4)GlcNAc(b1-3)Gal(b1-4)GlcNAc(b1-3)Gal(b1-4)GlcNAc(b1-2)Man(a1-3)[Gal(b1-4)GlcNAc(b1-3)Gal(b1-4)GlcNAc(b1-3)Gal(b1-4)GlcNAc(b1-2)Man(a1-6)]Man(b1-4)GlcNAc(b1-4)GlcNAc
# Method in brief: as §1
# [11] = molecular target: Gal(b1-4)GlcNAc(b1-3)Gal(b1-4)GlcNAc(b1-3)Gal(b1-4)GlcNAc(b1-2)Man(a1-3)[Gal(b1-4)GlcNAc(b1-3)Gal(b1-4)GlcNAc(b1-3)Gal(b1-4)GlcNAc(b1-2)Man(a1-6)]Man(b1-4)GlcNAc(b1-4)[Fuc(a1-6)]GlcNAc
# Method in brief: as §1
# [12] = molecular target: Gal(b1-4)GlcNAc(b1-3)Gal(b1-4)GlcNAc(b1-3)Gal(b1-4)GlcNAc(b1-2)[Gal(b1-4)GlcNAc(b1-3)Gal(b1-4)GlcNAc(b1-3)Gal(b1-4)GlcNAc(b1-6)]Man(a1-6)[Gal(b1-4)GlcNAc(b1-3)Gal(b1-4)GlcNAc(b1-3)Gal(b1-4)GlcNAc(b1-2)Man(a1-3)]Man(b1-4)GlcNAc(b1-4)[Fuc(a1-6)]GlcNAc
# Method in brief: as §1
# [13] = molecular target: Gal(b1-4)GlcNAc(b1-3)Gal(b1-4)GlcNAc(b1-3)Gal(b1-4)GlcNAc(b1-3)Gal(b1-4)GlcNAc(b1-2)Man(a1-3)[Gal(b1-4)GlcNAc(b1-3)Gal(b1-4)GlcNAc(b1-3)Gal(b1-4)GlcNAc(b1-3)Gal(b1-4)GlcNAc(b1-2)Man(a1-6)]Man(b1-4)GlcNAc(b1-4)GlcNAc
# Method in brief: as §1
# [14] = molecular target: Gal(b1-4)GlcNAc(b1-3)Gal(b1-4)GlcNAc(b1-3)Gal(b1-4)GlcNAc(b1-3)Gal(b1-4)GlcNAc(b1-2)Man(a1-3)[Gal(b1-4)GlcNAc(b1-3)Gal(b1-4)GlcNAc(b1-3)Gal(b1-4)GlcNAc(b1-3)Gal(b1-4)GlcNAc(b1-2)Man(a1-6)]Man(b1-4)GlcNAc(b1-4)[Fuc(a1-6)]GlcNAc
# Method in brief: as §1
# [15] = molecular target: Gal(b1-4)GlcNAc(b1-3)Gal(b1-4)GlcNAc(b1-3)Gal(b1-4)GlcNAc(b1-3)Gal(b1-4)GlcNAc(b1-2)[Gal(b1-4)GlcNAc(b1-3)Gal(b1-4)GlcNAc(b1-3)Gal(b1-4)GlcNAc(b1-3)Gal(b1-4)GlcNAc(b1-6)]Man(a1-6)[Gal(b1-4)GlcNAc(b1-3)Gal(b1-4)GlcNAc(b1-3)Gal(b1-4)GlcNAc(b1-3)Gal(b1-4)GlcNAc(b1-2)Man(a1-3)]Man(b1-4)GlcNAc(b1-4)[Fuc(a1-6)]GlcNAc
# Method in brief: as §1
# [16] = molecular target: Gal(b1-4)GlcNAc(b1-3)Gal(b1-4)GlcNAc(b1-3)Gal(b1-4)GlcNAc(b1-3)Gal(b1-4)GlcNAc(b1-3)Gal(b1-4)GlcNAc(b1-2)Man(a1-3)[Gal(b1-4)GlcNAc(b1-3)Gal(b1-4)GlcNAc(b1-3)Gal(b1-4)GlcNAc(b1-3)Gal(b1-4)GlcNAc(b1-3)Gal(b1-4)GlcNAc(b1-2)Man(a1-6)]Man(b1-4)GlcNAc(b1-4)GlcNAc
# Method in brief: as §1
# [17] = molecular target: Gal(b1-4)GlcNAc(b1-3)Gal(b1-4)GlcNAc(b1-3)Gal(b1-4)GlcNAc(b1-3)Gal(b1-4)GlcNAc(b1-3)Gal(b1-4)GlcNAc(b1-2)Man(a1-3)[Gal(b1-4)GlcNAc(b1-3)Gal(b1-4)GlcNAc(b1-3)Gal(b1-4)GlcNAc(b1-3)Gal(b1-4)GlcNAc(b1-3)Gal(b1-4)GlcNAc(b1-2)Man(a1-6)]Man(b1-4)GlcNAc(b1-4)[Fuc(a1-6)]GlcNAc
# Method in brief: as §1
# [18] = molecular target: Gal(b1-4)GlcNAc(b1-3)Gal(b1-4)GlcNAc(b1-3)Gal(b1-4)GlcNAc(b1-3)Gal(b1-4)GlcNAc(b1-3)Gal(b1-4)GlcNAc(b1-2)[Gal(b1-4)GlcNAc(b1-3)Gal(b1-4)GlcNAc(b1-3)Gal(b1-4)GlcNAc(b1-3)Gal(b1-4)GlcNAc(b1-3)Gal(b1-4)GlcNAc(b1-6)]Man(a1-6)[Gal(b1-4)GlcNAc(b1-3)Gal(b1-4)GlcNAc(b1-3)Gal(b1-4)GlcNAc(b1-3)Gal(b1-4)GlcNAc(b1-3)Gal(b1-4)GlcNAc(b1-2)Man(a1-3)]Man(b1-4)GlcNAc(b1-4)[Fuc(a1-6)]GlcNAc
# Method in brief: as §1
# [19] = molecular target: Gal(b1-4)GlcNAc(b1-3)Gal(b1-4)GlcNAc(b1-3)Gal(b1-4)GlcNAc(b1-3)Gal(b1-4)GlcNAc(b1-3)Gal(b1-4)GlcNAc(b1-3)Gal(b1-4)GlcNAc(b1-2)Man(a1-3)[Gal(b1-4)GlcNAc(b1-3)Gal(b1-4)GlcNAc(b1-3)Gal(b1-4)GlcNAc(b1-3)Gal(b1-4)GlcNAc(b1-3)Gal(b1-4)GlcNAc(b1-3)Gal(b1-4)GlcNAc(b1-2)Man(a1-6)]Man(b1-4)GlcNAc(b1-4)GlcNAc
# Method in brief: as §1
# [20] = molecular target: Gal(b1-4)GlcNAc(b1-3)Gal(b1-4)GlcNAc(b1-3)GalNAc
# Method in brief: as §1
# [21] = molecular target: Gal(b1-4)GlcNAc(b1-3)Gal(b1-4)GlcNAc(b1-3)[Gal(b1-4)GlcNAc(b1-3)Gal(b1-4)GlcNAc(b1-6)]GalNAc
# Method in brief: as §1
# [22] = molecular target: Gal(b1-4)GlcNAc(b1-3)Gal(b1-4)GlcNAc(b1-6)[Gal(b1-3)]GalNAc
# Method in brief: as §1
# [23] = molecular target: Gal(b1-4)GlcNAc(b1-3)Gal(b1-4)[Fuc(a1-3)]GlcNAc(b1-3)Gal(b1-4)[Fuc(a1-3)]GlcNAc
# Method in brief: as §1
# [24] = molecular target: Gal(b1-4)GlcNAc(b1-3)GalNAc
# Method in brief: as §1
# [25] = molecular target: Gal(b1-4)GlcNAc(b1-3)[Fuc(a1-3)GlcNAc(b1-6)]Gal(b1-4)Glc
# Method in brief: as §1
# [26] = molecular target: Gal(b1-4)GlcNAc(b1-3)[Gal(b1-4)GlcNAc(b1-6)]Gal(b1-4)GlcNAc
# Method in brief: as §1
# [27] = molecular target: Gal(b1-4)GlcNAc(b1-3)[Gal(b1-4)GlcNAc(b1-6)]GalNAc
# Method in brief: as §1
# [28] = molecular target: Gal(b1-4)GlcNAc(b1-3)[GlcNAc(b1-6)]Gal(b1-4)GlcNAc
# Method in brief: as §1
# [29] = molecular target: Gal(b1-4)GlcNAc(b1-6)Gal(b1-4)GlcNAc
# Method in brief: as §1
# [30] = molecular target: Gal(b1-4)GlcNAc(b1-6)Gal(b1-4)GlcNAc(b1-6)GalNAc
# Method in brief: as §1
# [31] = molecular target: Gal(b1-4)GlcNAc(b1-6)GalNAc
# Method in brief: as §1
# [32] = molecular target: Gal(b1-4)GlcNAc(b1-6)[Gal(b1-3)]GalNAc
# Method in brief: as §1
# [33] = molecular target: Gal(b1-4)GlcNAc(b1-6)[Gal(b1-4)GlcNAc(b1-3)]GalNAc
# Method in brief: as §1
# Gal(b1-4)GlcNAc6P = molecular target: Gal(b1-4)GlcNAc6P
# Method in brief: as §1
# Gal(b1-6)Gal = molecular target: Gal(b1-6)Gal
# Method in brief: as §1
# Gal3S(b1-3)GalNAc = molecular target: Gal3S(b1-3)GalNAc
# Method in brief: as §1
# Gal3S(b1-3)GlcNAc = molecular target: Gal3S(b1-3)GlcNAc
# Method in brief: as §1
binder,measurement,setting,value
B1,glycan array binding signal (z-score),[1],-0.13
same,glycan array binding signal (z-score),[2],-0.168
same,glycan array binding signal (z-score),[3],-0.155
same,glycan array binding signal (z-score),[4],-0.214
same,glycan array binding signal (z-score),[5],0.162
same,glycan array binding signal (z-score),[6],0.122
same,glycan array binding signal (z-score),[7],-0.248
same,glycan array binding signal (z-score),[8],0.622
same,glycan array binding signal (z-score),[9],-0.194
same,glycan array binding signal (z-score),[10],0.77
same,glycan array binding signal (z-score),[11],0.347
same,glycan array binding signal (z-score),[12],0.984
same,glycan array binding signal (z-score),[13],0.231
same,glycan array binding signal (z-score),[14],0.289
same,glycan array binding signal (z-score),[15],0.749
same,glycan array binding signal (z-score),[16],-0.018
same,glycan array binding signal (z-score),[17],0.211
same,glycan array binding signal (z-score),[18],0.381
same,glycan array binding signal (z-score),[19],0.445
same,glycan array binding signal (z-score),[20],0.314
same,glycan array binding signal (z-score),[21],0.197
same,glycan array binding signal (z-score),[22],0.296
same,glycan array binding signal (z-score),[23],-0.167
same,glycan array binding signal (z-score),[24],-0.205
same,glycan array binding signal (z-score),[25],-0.249
same,glycan array binding signal (z-score),[26],-0.064
same,glycan array binding signal (z-score),[27],-0.233
same,glycan array binding signal (z-score),[28],-0.232
same,glycan array binding signal (z-score),[29],-0.208
same,glycan array binding signal (z-score),[30],-0.24
same,glycan array binding signal (z-score),[31],-0.147
same,glycan array binding signal (z-score),[32],-0.182
same,glycan array binding signal (z-score),[33],-0.204
same,glycan array binding signal (z-score),Gal(b1-4)GlcNAc6P,-0.224
same,glycan array binding signal (z-score),Gal(b1-6)Gal,-0.212
same,glycan array binding signal (z-score),Gal3S(b1-3)GalNAc,0.096
same,glycan array binding signal (z-score),Gal3S(b1-3)GlcNAc,1.5

# Reference: the supplement of paper PMC8728848
